Some of the results follow. These are enrichments in a pooled selection; single values are uncertain. Each score is taken over the longer molecules that contain the sequence shown.
Experiments:
Assay in all cases: 6-mer SELEX enrichment z-score vs GST control; IMP3 is the RNA-binding protein IGF2BP3; higher = more enriched by binding
IMP3 KH1-4 = settings: construct: KH1-4 (164-579); SELEX round: R4
Procedure: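 SELEX-seq with GST-tagged IMP3 KH1-4 (Pro164-Lys579) and an N40 RNA pool, round 4. 6-mer z-score of sequence-tag enrichment normalised to the corresponding GST SELEX round; RNA k-mers written as DNA (T for U).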

IMP3 RRM1-2 = settings: construct: RRM1-2 (1-163); SELEX round: R2
Procedure: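 SELEX-seq with GST-tagged IMP3 RRM1-2 (Met1-Asn163) and an N40 RNA pool, round 2. 6-mer enrichment z-score normalised to GST SELEX. RNA written as DNA (T = U).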

IMP3 full-length = IMP3 full-length (UniProt O00425); settings: construct: FL IMP3 (1-579); SELEX round: R4
Procedure: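 SELEX-seq with GST-tagged full-length IMP3 and an N40 RNA pool, round 4. Each 6-mer is scored as an enrichment z-score of sequence tags containing it, normalised to the matching GST SELEX round. RNA written as DNA (T = U).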

IMP3 KH1-2 = settings: construct: KH1-2 (164-376); SELEX round: R4
Procedure: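 SELEX-seq with GST-tagged IMP3 KH1-2 (Pro164-Phe376) and an N40 RNA pool, round 4 (stringent 300/600 mM KCl washes). 6-mer z-score of sequence-tag enrichment normalised to the corresponding GST SELEX round; RNA k-mers written as DNA (T for U).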

IMP3 KH3-4 = settings: construct: KH3-4 (377-579); SELEX round: R4
Procedure: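 SELEX-seq with GST-tagged IMP3 KH3-4 (Pro377-Lys579) and an N40 RNA pool, round 4. 6-mer z-score of sequence-tag enrichment normalised to the corresponding GST SELEX round; RNA k-mers written as DNA (T for U).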

IMP3 KH3-4, sequence (chain, as listed by the source): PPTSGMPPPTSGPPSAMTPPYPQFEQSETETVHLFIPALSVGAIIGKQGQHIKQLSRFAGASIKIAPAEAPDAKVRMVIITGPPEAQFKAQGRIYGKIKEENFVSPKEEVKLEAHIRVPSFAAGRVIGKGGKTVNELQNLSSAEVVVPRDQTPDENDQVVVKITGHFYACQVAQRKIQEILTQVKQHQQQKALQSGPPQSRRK
IMP3 RRM1-2, sequence (chain, as listed by the source): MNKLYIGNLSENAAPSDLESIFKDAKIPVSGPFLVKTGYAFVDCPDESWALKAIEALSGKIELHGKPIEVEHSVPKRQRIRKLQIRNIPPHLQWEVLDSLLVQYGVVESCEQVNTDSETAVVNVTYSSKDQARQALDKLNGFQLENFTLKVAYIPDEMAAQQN
IMP3 KH1-2, sequence (chain, as listed by the source): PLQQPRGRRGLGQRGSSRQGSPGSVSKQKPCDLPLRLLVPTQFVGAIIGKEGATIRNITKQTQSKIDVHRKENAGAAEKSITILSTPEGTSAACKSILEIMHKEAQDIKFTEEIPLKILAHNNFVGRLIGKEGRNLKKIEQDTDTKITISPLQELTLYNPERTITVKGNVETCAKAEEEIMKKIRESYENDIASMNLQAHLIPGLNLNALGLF
IMP3 KH1-4, sequence (chain, as listed by the source): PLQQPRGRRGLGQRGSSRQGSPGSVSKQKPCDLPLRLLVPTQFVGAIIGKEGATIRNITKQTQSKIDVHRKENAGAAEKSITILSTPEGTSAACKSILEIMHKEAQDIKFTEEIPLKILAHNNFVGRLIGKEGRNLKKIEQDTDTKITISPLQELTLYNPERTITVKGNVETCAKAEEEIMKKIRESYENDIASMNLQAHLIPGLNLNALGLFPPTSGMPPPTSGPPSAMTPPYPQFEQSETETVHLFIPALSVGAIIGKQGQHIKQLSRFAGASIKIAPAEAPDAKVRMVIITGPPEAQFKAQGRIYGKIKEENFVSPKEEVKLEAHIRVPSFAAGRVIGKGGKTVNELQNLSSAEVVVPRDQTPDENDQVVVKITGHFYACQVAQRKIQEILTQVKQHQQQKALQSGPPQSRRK
UniProt O00425, sequence (O00425 whole entry): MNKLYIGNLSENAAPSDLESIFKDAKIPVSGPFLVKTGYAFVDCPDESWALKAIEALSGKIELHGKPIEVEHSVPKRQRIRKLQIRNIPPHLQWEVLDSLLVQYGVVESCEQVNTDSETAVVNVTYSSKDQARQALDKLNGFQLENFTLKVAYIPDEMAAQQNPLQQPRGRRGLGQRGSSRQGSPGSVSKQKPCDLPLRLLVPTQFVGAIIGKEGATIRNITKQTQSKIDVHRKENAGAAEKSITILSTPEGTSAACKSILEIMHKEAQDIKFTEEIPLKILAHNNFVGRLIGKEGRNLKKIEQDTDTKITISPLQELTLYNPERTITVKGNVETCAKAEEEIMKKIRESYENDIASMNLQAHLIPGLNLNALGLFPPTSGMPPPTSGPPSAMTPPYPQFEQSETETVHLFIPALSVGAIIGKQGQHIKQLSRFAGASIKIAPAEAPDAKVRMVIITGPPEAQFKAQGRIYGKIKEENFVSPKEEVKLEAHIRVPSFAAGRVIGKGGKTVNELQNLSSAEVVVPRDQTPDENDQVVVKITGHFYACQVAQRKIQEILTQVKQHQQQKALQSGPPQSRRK

Row | Sequence | 6-mer SELEX enrichment z-score (IMP3 KH1-4) | 6-mer SELEX enrichment z-score (IMP3 RRM1-2) | 6-mer SELEX enrichment z-score (IMP3 full-length) | 6-mer SELEX enrichment z-score (IMP3 KH1-2) | 6-mer SELEX enrichment z-score (IMP3 KH3-4)
1 | TATTCA | 1.16 | 0.974 | 0.742 | 1.13 | 1.14
2 | AAGTGA | 0.189 | -1.03 | -0.702 | -0.143 | 0.422
3 | TAGACG | -0.443 | -0.527 | -0.317 | -0.393 | -0.233
4 | TCCACG | -0.328 | -0.171 | -0.266 | -0.496 | -0.84
5 | GCTAGT | -0.507 | 0.226 | -0.29 | -0.474 | -0.341
6 | TAGATA | 0.711 | -0.414 | -0.141 | 0.515 | 1.19
7 | GTTGTT | -0.053 | 0.401 | -0.132 | -0.073 | 0.109
8 | CGCTCG | -0.765 | 0.284 | 0.148 | -0.571 | -0.585
9 | CTGACT | -0.308 | -0.367 | -0.685 | -0.223 | -0.356
10 | GTTAGT | 0.169 | 0.347 | 0.017 | 0.087 | 0.231
11 | GTGGAT | 0.175 | 0.025 | -0.121 | 0.07 | 0.244
12 | ATGCTT | 0.325 | 0.137 | 0.066 | 0.301 | 0.422
13 | TCCAGT | 0.452 | 0.117 | 0.151 | 0.173 | 0.053
14 | CGCTCT | -0.136 | 0.186 | 0.18 | 0.011 | -0.134
15 | TGCTGG | 0.323 | 0.163 | 0.211 | 0.31 | 0.278
16 | ATGAGT | 0.05 | -0.034 | -0.275 | -0.174 | 0.207
17 | CTCTTC | 0.303 | 0.536 | 0.101 | 0.416 | 0.085
18 | GCTTGA | -0.564 | -0.152 | -0.367 | -0.49 | -0.317
19 | GTTAGG | 0.414 | 0.353 | 0.255 | 0.358 | 0.491
20 | TAGGAC | 0.175 | 0.642 | -0.022 | -0.035 | 0.079
21 | GAAGTT | -0.107 | -0.241 | -0.404 | -0.156 | 0.07
22 | TTTCAT | 1.43 | 1.12 | 1.39 | 1.54 | 1.38
23 | ACGGAG | -0.126 | -0.766 | -0.058 | -0.237 | -0.093

Row | Sequence | 6-mer SELEX enrichment z-score (IMP3 KH1-4) | 6-mer SELEX enrichment z-score (IMP3 RRM1-2) | 6-mer SELEX enrichment z-score (IMP3 full-length) | 6-mer SELEX enrichment z-score (IMP3 KH1-2) | 6-mer SELEX enrichment z-score (IMP3 KH3-4)
24 | GTGCTT | -0.174 | 0.308 | -0.093 | -0.1 | -0.011
25 | ATATGG | 1.23 | 0.177 | 0.426 | 0.933 | 1.52
26 | GCTGCT | 0.366 | 0.238 | 0.236 | 0.353 | 0.269
27 | GTGCCA | -0.34 | -0.161 | 0.066 | -0.423 | -0.545
28 | AAGCAG | 0.13 | 0.036 | 0.339 | 0.067 | 0.12
29 | CGTTCT | -0.116 | 0.244 | 0.062 | -0.053 | -0.067
30 | GACATT | 0.285 | 0.261 | 0.464 | 0.2 | 0.253
31 | ATAGAG | 0.352 | -0.277 | 0.055 | 0.272 | 0.869
32 | TAGCTT | -0.084 | 0.285 | -0.068 | -0.011 | 0.128
33 | GCGGGC | -0.249 | 0.056 | 1.01 | 0.035 | 0.051
34 | ACATCG | -0.027 | 0.587 | 0.893 | -0.285 | -0.549
35 | GTTTAA | 0.105 | -0.157 | -0.383 | 0.015 | 0.463
36 | AAAGTC | -0.259 | -0.673 | -0.298 | -0.51 | -0.299
37 | CTTGCT | -0.011 | 0.35 | -0.016 | 0.037 | 0.019
38 | TTAACG | 0.184 | -0.482 | -0.566 | 0.023 | 0.506
39 | ACCAAC | -1.52 | 0.42 | -1.3 | -1.17 | -2.23
40 | TAGGGG | 0.869 | 0.249 | 0.422 | 1.05 | 1.14
41 | GATGGT | 0.275 | 0.091 | 0.119 | 0.245 | 0.328
42 | GCTAGG | -0.035 | 0.281 | 0.191 | 0.022 | 0.067
43 | TCGGTA | 0.039 | 0.458 | 0.312 | 0.037 | 0.133
44 | TCGCAC | 0.85 | 0.397 | 0.881 | 0.654 | 0.15
45 | GTCTCG | -0.067 | 0.791 | 0.635 | 0.137 | 0.252

Source: the supplement of paper PMC6531468
